The antibiotic and cytotoxicity screens of Wong et al. (2023)
The list shows a part of the results.

Tests used:
HSkMC = human skeletal muscle cells; test: cytotoxicity call (relative viability < 0.9); settings: 10 µM
HepG2 = test: cytotoxicity call (relative viability < 0.9); settings: 10 µM
S. aureus RN4220 = test: growth inhibition call (relative growth <= 0.2); settings: 50 µM

| Compound | cytotoxicity call (HSkMC) | cytotoxicity call (HepG2) | growth inhibition call (S. aureus RN4220) |
| --- | --- | --- | --- |
| COc1ccc(NC(=O)Nc2ccc3c(c2)C(=O)N([C@H](C)CO)C[C@H](C)[C@H](CN(C)S(=O)(=O)c2ccc(C)cc2)OCCCC[C@H](C)O3)cc1 | inactive | inactive | inactive |
| COc1ccc(NC(=O)N(C)C[C@@H]2OCCCC[C@@H](C)Oc3ccc(NC(=O)C4CCCCC4)cc3C(=O)N([C@H](C)CO)C[C@H]2C)cc1 | inactive | inactive | inactive |
| C[C@H]1CN([C@@H](C)CO)C(=O)c2cc(NC(=O)CCCN(C)C)ccc2O[C@H]1CN(C)C(=O)NC1CCCCC1 | inactive | inactive | inactive |
| CC(C)NC(=O)Nc1ccc2c(c1)C(=O)N([C@H](C)CO)C[C@H](C)[C@H](CN(C)C(=O)Nc1cccc3ccccc13)OCCCC[C@H](C)O2 | inactive | active | inactive |
| C[C@@H]1CCCCO[C@H](CN(C)Cc2ccc(C(F)(F)F)cc2)[C@H](C)CN([C@@H](C)CO)C(=O)c2cc(NS(=O)(=O)c3ccc(F)cc3)ccc2O1 | active | inactive | inactive |
| Cc1noc(C)c1NC(=O)Nc1ccc2c(c1)C(=O)N([C@H](C)CO)C[C@@H](C)[C@H](CN(C)Cc1ccc(Cl)c(Cl)c1)OCCCC[C@@H](C)O2 | inactive | inactive | inactive |
| C[C@H]1CN([C@@H](C)CO)C(=O)c2cc(NS(C)(=O)=O)ccc2O[C@H]1CN(C)S(=O)(=O)c1cn(C)cn1 | inactive | inactive | inactive |
| COCC#Cc1ccc2c(c1)O[C@@H](CN(C)C(=O)C1CCOCC1)[C@@H](C)CN([C@@H](C)CO)S2(=O)=O | inactive | inactive | inactive |
| CN(C)C(=O)CN1CCC2(CC1)CN(c1cncnc1)C(=O)CO2 | inactive | inactive | inactive |
| CNC(=O)Cn1cc2c(n1)CC[C@H](C)C2 | inactive | inactive | inactive |
| C[C@@H]1CN([C@@H](C)CO)S(=O)(=O)c2ccc(C#Cc3ccccc3F)cc2O[C@@H]1CN(C)C(=O)c1ccc2c(c1)OCO2 | inactive | active | inactive |
| COc1ccc(S(=O)(=O)N(C)C[C@H]2Oc3cc(Br)ccc3S(=O)(=O)N([C@H](C)CO)C[C@H]2C)cc1 | inactive | inactive | inactive |
| C[C@@H]1CN([C@H](C)CO)S(=O)(=O)c2ccc(C#CC3CC3)cc2O[C@H]1CN(C)Cc1ccc(F)cc1 | active | active | inactive |
| COc1ccc(S(=O)(=O)N(C)C[C@H]2Oc3ccc(NC(=O)C4CC4)cc3C(=O)N([C@@H](C)CO)C[C@@H]2C)cc1 | inactive | active | inactive |
| COc1ccc(CN(C)C[C@H]2OCCCC[C@@H](C)Oc3ccc(NS(=O)(=O)c4c(C)noc4C)cc3C(=O)N([C@@H](C)CO)C[C@H]2C)cc1 | inactive | inactive | inactive |
| CC1=NN2NC(C(F)(F)F)=NN2C(=O)C1 | inactive | inactive | inactive |
| COc1ccc(CN(C)C[C@@H]2OCCCC[C@H](C)Oc3ccc(NS(=O)(=O)c4ccccc4)cc3C(=O)N([C@@H](C)CO)C[C@H]2C)cc1 | inactive | inactive | inactive |
| COc1ccc(S(=O)(=O)Nc2ccc3c(c2)C(=O)N([C@@H](C)CO)C[C@H](C)[C@H](CN(C)Cc2ccc(C(F)(F)F)cc2)OCCCC[C@@H](C)O3)cc1 | inactive | inactive | inactive |
| CC(C)NC(=O)N[C@@H]1CC[C@@H](CCN)O[C@@H]1CO | inactive | inactive | inactive |
| O=C(C[C@@H]1CC[C@H](NS(=O)(=O)c2ccccc2F)[C@H](CO)O1)NCCCN1CCOCC1 | inactive | inactive | inactive |
| O=C(CCCN1CCC(O)(c2ccc(Br)cc2)CC1)c1ccc(F)cc1 | inactive | active | inactive |
| O=C(CN1CCOCC1)N[C@@H]1CC[C@H](CCn2cc(C3CC3)nn2)O[C@@H]1CO | inactive | inactive | inactive |
| COCC(=O)N(C)C[C@H]1Oc2cc(C#C[C@H](C)O)ccc2S(=O)(=O)N([C@H](C)CO)C[C@H]1C | inactive | inactive | inactive |
| COc1ccc(NC(=O)N(C)C[C@@H]2OCCCC[C@H](C)Oc3ccc(NC(=O)Nc4ccc5c(c4)OCO5)cc3C(=O)N([C@@H](C)CO)C[C@@H]2C)cc1 | inactive | inactive | inactive |
| CN(C)Cc1cn(CC[C@H]2CC[C@@H](N)[C@H](CO)O2)nn1 | inactive | inactive | inactive |
| Cc1noc(C)c1NC(=O)Nc1ccc2c(c1)C(=O)N([C@@H](C)CO)C[C@H](C)[C@H](CN(C)C(=O)C1CCCCC1)OCCCC[C@H](C)O2 | inactive | inactive | inactive |
